Assay results published in the supplement of paper PMC10724272.

Key:
Experiment in all cases: CLSI broth microdilution.
[1] = compound: CCCCCOc1ccc(-c2cc(-c3ccc(C(=O)N[C@H]4C[C@@H](O)[C@@H](O)NC(=O)[C@@H]5[C@@H](O)[C@@H](C)CN5C(=O)[C@H]([C@H](O)CC(N)=O)NC(=O)[C@H]([C@H](O)[C@@H](O)c5ccc(O)c(OS(=O)(=O)O)c5)NC(=O)[C@@H]5C[C@@H](O)CN5C(=O)[C@H]([C@@H](C)O)NC4=O)cc3)no2)cc1 [micafungin]
[2] = compound: CC[C@@H]([C@H](C)O)n1ncn(-c2ccc(N3CCN(c4ccc(OC[C@@H]5CO[C@@](Cn6cncn6)(c6ccc(F)cc6F)C5)cc4)CC3)cc2)c1=O [posaconazole]
[3] = compound: Nc1[nH]c(=O)ncc1F [flucytosine]
[4] = compound: C[C@@H]1[C@H](O)[C@@H](C)/C=C/C=C/C=C/C=C/C=C/C=C/C=C/[C@H](O[C@@H]2O[C@H](C)[C@@H](O)[C@H](N)[C@@H]2O)C[C@@H]2O[C@](O)(C[C@@H](O)C[C@@H](O)[C@H](O)CC[C@@H](O)C[C@@H](O)CC(=O)O[C@H]1C)C[C@H](O)[C@H]2C(=O)O [amphotericin B]
[5] = compound: CC[C@H](C)C[C@H](C)CCCCCCCCC(=O)N[C@H]1C[C@@H](O)[C@@H](NCCN)NC(=O)[C@@H]2[C@@H](O)CCN2C(=O)[C@H]([C@H](O)CCN)NC(=O)[C@H]([C@H](O)[C@@H](O)c2ccc(O)cc2)NC(=O)[C@@H]2C[C@@H](O)CN2C(=O)[C@H]([C@@H](C)O)NC1=O [caspofungin]
[6] = compound: CCC(C)n1ncn(-c2ccc(N3CCN(c4ccc(OCC5COC(Cn6cncn6)(c6ccc(Cl)cc6Cl)O5)cc4)CC3)cc2)c1=O [itraconazole]
[7] = compound: CCCCCOc1ccc(-c2ccc(-c3ccc(C(=O)N[C@H]4C[C@@H](O)[C@@H](O)NC(=O)[C@@H]5[C@@H](O)[C@@H](C)CN5C(=O)[C@H]([C@@H](C)O)NC(=O)[C@H]([C@H](O)[C@@H](O)c5ccc(O)cc5)NC(=O)[C@@H]5C[C@@H](O)CN5C(=O)[C@H]([C@@H](C)O)NC4=O)cc3)cc2)cc1 [anidulafungin]
[8] = compound: C[C@@H](c1ncncc1F)[C@](O)(Cn1cncn1)c1ccc(F)cc1F [voriconazole]
[9] = compound: OC(Cn1cncn1)(Cn1cncn1)c1ccc(F)cc1F [fluconazole]

Test System | MIC [1] | MIC [2] | MIC [3] | MIC [4] | MIC [5] | MIC [6] | MIC [7] | MIC [8] | MIC [9]
Candida tropicalis isolate 33 (ERG11 copies: 2, Erg11p: no key change) | 0.03 mg/L [S] | 0.12 mg/L [S] | ≤ 0.06 mg/L [S] | 1 mg/L [S] | 0.03 mg/L [S] | 0.25 mg/L [S] | 0.03 mg/L [S] | 0.12 mg/L [S] | 2 mg/L [S]
Candida tropicalis isolate 34 (ERG11 copies: 5, Erg11p: Y132F, S154F (heterozygous)) | 0.06 mg/L [S] | 0.5 mg/L [R] | ≤ 0.06 mg/L [S] | 0.5 mg/L [S] | 0.25 mg/L [S] | 0.5 mg/L [S] | 0.12 mg/L [S] | ≥ 8 mg/L [R] | 256 mg/L [R]
Candida tropicalis isolate 35 (ERG11 copies: 2, Erg11p: no key change) | 0.06 mg/L [S] | 0.12 mg/L [S] | ≤ 0.06 mg/L [S] | 0.5 mg/L [S] | 0.12 mg/L [S] | 0.25 mg/L [S] | 0.12 mg/L [S] | 0.06 mg/L [S] | 1 mg/L [S]
Candida tropicalis isolate 36 (ERG11 copies: 2, Erg11p: no key change) | 0.06 mg/L [S] | 0.25 mg/L [S] | ≤ 0.06 mg/L [S] | 1 mg/L [S] | 0.03 mg/L [S] | 0.25 mg/L [S] | 0.03 mg/L [S] | 0.12 mg/L [S] | 2 mg/L [S]
Candida tropicalis isolate 37 (ERG11 copies: 2, Erg11p: no key change) | 0.03 mg/L [S] | 2 mg/L [R] | ≤ 0.06 mg/L [S] | 1 mg/L [S] | 0.25 mg/L [S] | ≥ 16 mg/L [R] | 0.12 mg/L [S] | 4 mg/L [R] | 256 mg/L [R]
Candida tropicalis isolate 38 (ERG11 copies: 2, Erg11p: no key change) | 0.06 mg/L [S] | 0.5 mg/L [R] | ≤ 0.06 mg/L [S] | 0.5 mg/L [S] | 0.12 mg/L [S] | 0.25 mg/L [S] | 0.12 mg/L [S] | 0.12 mg/L [S] | 2 mg/L [S]
Candida tropicalis isolate 39 (ERG11 copies: 8, Erg11p: Y132F, S154F (heterozygous)) | 0.03 mg/L [S] | 0.5 mg/L [R] | ≤ 0.06 mg/L [S] | 1 mg/L [S] | 0.03 mg/L [S] | 0.5 mg/L [S] | 0.03 mg/L [S] | ≥ 8 mg/L [R] | 512 mg/L [R]
Candida tropicalis isolate 40 (ERG11 copies: 2, Erg11p: Y132F, S154F (homozygous)) | 0.015 mg/L [S] | 0.12 mg/L [S] | ≤ 0.06 mg/L [S] | 0.5 mg/L [S] | 0.03 mg/L [S] | 0.25 mg/L [S] | 0.12 mg/L [S] | 2 mg/L [R] | 32 mg/L [R]
Candida tropicalis isolate 41 (ERG11 copies: 2, Erg11p: no key change) | 0.03 mg/L [S] | 0.06 mg/L [S] | ≤ 0.06 mg/L [S] | 1 mg/L [S] | 0.03 mg/L [S] | 0.06 mg/L [S] | ≤ 0.015 mg/L [S] | 0.06 mg/L [S] | 1 mg/L [S]
Candida tropicalis isolate 42 (ERG11 copies: 8, Erg11p: Y132F, S154F (heterozygous)) | 0.06 mg/L [S] | 2 mg/L [R] | ≤ 0.06 mg/L [S] | 0.5 mg/L [S] | 0.06 mg/L [S] | 1 mg/L [R] | 0.12 mg/L [S] | ≥ 8 mg/L [R] | 512 mg/L [R]
Candida tropicalis isolate 43 (ERG11 copies: 10, Erg11p: Y132F, S154F (homozygous)) | 0.03 mg/L [S] | 0.25 mg/L [S] | ≤ 0.06 mg/L [S] | 0.25 mg/L [S] | 0.03 mg/L [S] | 0.25 mg/L [S] | ≤ 0.015 mg/L [S] | 0.25 µg/mL | 4 µg/mL
Candida tropicalis isolate 44 (ERG11 copies: 2, Erg11p: no key change) | 0.03 mg/L [S] | ≥ 8 mg/L [R] | 0.12 mg/L [S] | 0.5 mg/L [S] | 0.06 mg/L [S] | 8 mg/L [R] | 0.12 mg/L [S] | 1 mg/L [R] | 16 mg/L [R]
Candida tropicalis isolate 45 (ERG11 copies: 2, Erg11p: no key change) | 0.03 mg/L [S] | 0.25 mg/L [S] | 0.12 mg/L [S] | 0.5 mg/L [S] | 0.06 mg/L [S] | 0.25 mg/L [S] | 0.12 mg/L [S] | 0.25 µg/mL | 2 mg/L [S]
Candida tropicalis isolate 46 (ERG11 copies: 2, Erg11p: no key change) | 0.03 mg/L [S] | 0.25 mg/L [S] | ≤ 0.06 mg/L [S] | 0.5 mg/L [S] | 0.03 mg/L [S] | 0.25 mg/L [S] | 0.12 mg/L [S] | 0.25 µg/mL | 2 mg/L [S]
Candida tropicalis isolate 47 (ERG11 copies: 8, Erg11p: Y132F, S154F (heterozygous)) | 0.03 mg/L [S] | 1 mg/L [R] | ≤ 0.06 mg/L [S] | 1 mg/L [S] | 0.03 mg/L [S] | 1 mg/L [R] | 0.06 mg/L [S] | ≥ 8 mg/L [R] | 512 mg/L [R]
Candida tropicalis isolate 48 (ERG11 copies: 8, Erg11p: Y132F, S154F (heterozygous)) | 0.03 mg/L [S] | 1 mg/L [R] | ≤ 0.06 mg/L [S] | 1 mg/L [S] | 0.5 µg/mL | 2 mg/L [R] | 0.12 mg/L [S] | ≥ 8 mg/L [R] | 512 mg/L [R]
Candida tropicalis isolate 49 (ERG11 copies: 2, Erg11p: no key change) | 0.03 mg/L [S] | 0.25 mg/L [S] | ≤ 0.06 mg/L [S] | 1 mg/L [S] | 0.06 mg/L [S] | 0.25 mg/L [S] | 0.06 mg/L [S] | 0.25 µg/mL | 2 mg/L [S]
Candida tropicalis isolate 50 (ERG11 copies: 2, Erg11p: no key change) | 0.03 mg/L [S] | 0.5 mg/L [R] | ≤ 0.06 mg/L [S] | 1 mg/L [S] | 0.03 mg/L [S] | 0.25 mg/L [S] | 0.12 mg/L [S] | 0.12 mg/L [S] | 2 mg/L [S]

MIC of invasive clinical C. tropicalis isolates, CLSI broth microdilution (fluconazole 0.12-256 mg/L, up to 1,024 for the azole-resistant cluster and its neighbour group; other ranges not stated); higher = less susceptible. Call: susceptible or wild type [S] / resistant or non-wild type [R] by CLSI breakpoints or cut-offs; intermediate and dose-dependent carry no call. '<=' and '>=' at the end values are inferred; the source marks only some of them. Isolates are numbered anew.
